The whole screen tested about 48,000 compounds, of which about 550 (1.1%) were called active. Roughly 4% stayed inconclusive and do not appear here. Rule as the data show it: active = potency below about 15 µM; inconclusive = mostly about 16 µM to 33 µM; inactive = weaker than that. The list shows a part of the results.
The compounds below were run against Lysosomal acid glucosylceramidase (Homo sapiens) (UniProt P04062) (assay: Glucocerebrosidase). Conditions: purified enzyme, resorufin glucoside fluorescence (screen aimed at inhibitors), 20 min.
Sequence of UniProt P04062 (P04062 whole entry, looked up): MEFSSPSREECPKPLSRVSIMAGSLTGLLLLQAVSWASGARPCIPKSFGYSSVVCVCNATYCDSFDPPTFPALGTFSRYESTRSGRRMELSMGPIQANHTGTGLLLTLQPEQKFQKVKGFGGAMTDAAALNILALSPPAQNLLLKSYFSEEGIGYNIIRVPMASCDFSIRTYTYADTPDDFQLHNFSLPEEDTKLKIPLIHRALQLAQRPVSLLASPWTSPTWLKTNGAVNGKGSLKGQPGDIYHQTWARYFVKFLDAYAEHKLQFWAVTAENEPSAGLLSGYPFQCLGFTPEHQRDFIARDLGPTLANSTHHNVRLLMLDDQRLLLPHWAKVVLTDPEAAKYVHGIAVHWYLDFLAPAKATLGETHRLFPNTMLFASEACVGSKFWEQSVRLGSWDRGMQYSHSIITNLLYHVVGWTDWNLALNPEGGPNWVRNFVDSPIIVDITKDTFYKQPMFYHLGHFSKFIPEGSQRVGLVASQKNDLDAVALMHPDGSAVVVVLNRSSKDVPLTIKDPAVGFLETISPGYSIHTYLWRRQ
How it was run: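 Compounds titrated against 0.2 nM normal enzyme, 30 uM resorufin beta-D-glucopyranoside substrate, citrate/phosphate buffer with taurocholate and tween-20, pH 5.9. Reaction ran 20 min at room temperature; fluorescence (Ex 548/Em 600) gave AC50.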
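Also: the screen sought inhibitors.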
Potency is read from the fitted curve at half-maximal effect.

Potency, inactive:
COc1cc(N)cc(NC(=O)c2ccncc2)c1 > 76.9 µM
Cc1c(C(=O)N2CCCC2)nnn1-c1nonc1N > 76.9 µM
O=C(Nc1ccc(Cl)cc1C(=O)Nc1ccc(Br)cn1)c1ccco1 > 76.9 µM
COc1ccccc1N(CN1CCCC1=O)C(=O)c1c(F)cccc1F > 76.9 µM
O=S1(=O)N=C(N2CCOCC2)c2ccccc21 > 76.9 µM
Cc1nnc(NC(=O)C2CCCN(c3ncccn3)C2)s1 (stereo unspecified) > 76.9 µM
CCC(=O)N1CCc2cc(S(=O)(=O)NCCCOC)ccc21 > 76.9 µM
CC(=O)N(C)c1nc(-c2ccc(Cl)cc2)cs1 > 76.9 µM
CCOC(=O)NC(c1ccccc1)C1CCCCC1=O (stereo unspecified) > 76.9 µM
CCOc1cc(N2CCOCC2)c(OCC)cc1NC(=O)CCC1CCCC1 > 76.9 µM
CCc1cc(C(=O)N2CCOCC2)c(NC2=NS(=O)(=O)c3ccccc32)s1 > 76.9 µM
Cn1c(=O)c2cc(S(=O)(=O)NCCC(=O)Nc3ccccc3F)ccc2n(C)c1=O > 76.9 µM
CCC(C)(C)n1nnnc1C(C(C)C)N1CCC(C(N)=O)CC1 (stereo unspecified) > 76.9 µM
O=C1c2ccccc2S(=O)(=O)N1Cc1nnc(-c2ccccc2Br)o1 > 76.9 µM
CC(C)(C)NC(=O)CN(C(=O)CS(=O)CC(=O)Nc1ccc(F)cc1)c1ccc(F)c(Cl)c1 (stereo unspecified)
CCN(CC)CCNC(=O)c1c(O)c2cccc3c2n(c1=O)CCC3 > 76.9 µM
CCOC(=O)N1CCC(NC(=O)c2ccc(CNS(=O)(=O)c3ccc(F)cc3)cc2)CC1 > 76.9 µM
COc1ccc(S(=O)(=O)Nc2ccc3c(c2)OCO3)cc1OC > 76.9 µM
CCS(=O)(=O)N1CCN(c2nc(-c3ccccc3)cs2)CC1 > 76.9 µM
CC(C)(C)n1nnnc1C(c1cc2cc3c(cc2[nH]c1=O)OCCO3)N1CCSCC1 (stereo unspecified) > 76.9 µM
O=C(Cn1nnc2ccccc2c1=O)NC1CCCc2ccccc21 (stereo unspecified) > 76.9 µM
CCCNC(=O)c1n[nH]c(=O)c2ccccc12 > 76.9 µM
CNC(=O)c1c(C)nc(SCC(=O)NCc2ccc(OC)cc2)c(C#N)c1-c1ccco1 > 76.9 µM
CCOC(=O)N1CCN(C(=O)C2CC(c3ccccc3OC)=NO2)CC1 (stereo unspecified) > 76.9 µM
CCC(C)N1CC23C=CC(O2)C(C(=O)OCc2ccccc2)C3C1=O (stereo unspecified) > 76.9 µM
CCOc1nc(-c2ccc(OC)cc2)ccc1-c1noc(-c2cccnc2)n1 > 76.9 µM
CCCOc1ccc(-c2nnn(CC(=O)Nc3cccc(C(=O)OC)c3)n2)cc1 > 76.9 µM
CCN(CC)S(=O)(=O)c1ccc2[nH]cc(C(=O)NCCN3CCCCCC3)c(=O)c2c1 > 76.9 µM
Cn1ccnc1SCC(=O)Nc1sccc1C#N > 76.9 µM
N#CCSc1nnc(COc2ccc3ccccc3c2)o1 > 76.9 µM
CCn1nnc(NC(=O)c2cc(Cl)c(OC)c(Cl)c2)n1 > 76.9 µM
C[C@H](NC(=O)NCCc1ccccc1)C(=O)O > 76.9 µM
CCn1ncc2c(OCc3ccc(C#N)cc3)cc(C)nc21 > 76.9 µM
C1=CCC(/C=N/n2cnnc2)CC1 (stereo unspecified) > 76.9 µM
COc1ccc(C2=NOC(C(=O)NCc3ccccc3)C2)cc1 (stereo unspecified) > 76.9 µM
COc1ccc(N2CCN(CCCNC(=O)C3(S(=O)(=O)c4ccc(Cl)cc4)CC3)CC2)cc1 > 76.9 µM
CC(=O)NC12CC3CC(C1)CC(C(=O)OCC(=O)Nc1ncc(Cl)cc1Cl)(C3)C2 > 76.9 µM
COc1ccc(-c2nc(CN3CCC(C(=O)NC(C)C)CC3)c(C)o2)cc1OC > 76.9 µM
O=S(=O)(c1ccc2oc3ccc(S(=O)(=O)N4CCCC4)cc3c2c1)N1CCCC1 > 76.9 µM
Cc1ccc(S(=O)(=O)N2CCN(C(=O)c3ccccc3)C2C(C)C)cc1 (stereo unspecified) > 76.9 µM
O=C(CSc1nnc2c3cc(F)ccc3nc(-c3ccccc3)n12)N1CCOCC1 > 76.9 µM
COc1cccc(C(=O)SC2=NCCS2)c1 > 76.9 µM
CCN1C(=O)C2(C(C#N)=C(N)Oc3n[nH]c(COC)c32)c2ccccc21 (stereo unspecified) > 76.9 µM
O=C(CSc1ncnc2sc3c(c12)CCCCC3)NCc1ccco1 > 76.9 µM
O=C(Nc1nc(SCc2ccc(F)cc2)ns1)c1ccco1 > 76.9 µM
O=C(NC1CCN(C(=O)N2CCOCC2)CC1)c1ccccc1 > 76.9 µM
O=C(Cc1cn2ccsc2n1)Nc1ccccn1 > 76.9 µM
O=C(Nc1ccc(N2CCN(C(=O)c3ccco3)CC2)cc1)c1ccc(F)cc1 > 76.9 µM
CCn1cc(S(=O)(=O)CC(=O)Nc2ccc3c(c2)OCCO3)c2ccccc21 > 76.9 µM
CCCOc1ccc(CC(=O)NCc2ccco2)cc1OC > 76.9 µM
Cn1c(SCC2CCCO2)nnc1-c1ccncc1 (stereo unspecified) > 76.9 µM
CC(O)COc1ccc(/C(=N/O)c2ccccc2)cc1 (stereo unspecified) > 76.9 µM
COc1ccc(-n2nnnc2SCC(=O)c2cccc(OC)c2)cc1 > 76.9 µM
Cc1cccc(C)c1OCc1nnc(SCC(=O)NCc2ccccc2)o1 > 76.9 µM
O=C(O)C1CC=CCC1C(=O)Nc1ccc(S(=O)(=O)N2CCCc3ccccc32)cc1 (stereo unspecified) > 76.9 µM
CCOc1cc(C)c(C(C)C)cc1S(=O)(=O)N1CCOCC1 > 76.9 µM
Cn1c(C(=O)N2CCc3ccccc3C2)cc2c(=O)n3ccccc3nc21 > 76.9 µM
COc1ccc(-c2nnc(SCCC(=O)O)n2-c2ccccc2)cc1 > 76.9 µM
Cc1ccc(S(=O)(=O)O)c(C)c1N1CCCC1=O > 76.9 µM
N#CCCNc1ccc(OCCC#N)cc1 > 76.9 µM
COC(=O)CCCC(=O)Nc1ccc(Cl)c(Cl)c1 > 76.9 µM
CCN(CC)S(=O)(=O)c1cccc(C(=O)NC2CCCCC2)c1 > 76.9 µM
Cc1c(NC(=O)c2nn(C)c(=O)c3ccccc23)c(=O)n(-c2ccccc2)n1C > 76.9 µM
Cc1cccc(-c2ccc(C=Nc3c(C)n(C)n(-c4ccccc4)c3=O)o2)c1 > 76.9 µM
O=C(O)C1CCN1C1CCCCC1 (stereo unspecified) > 76.9 µM
Cc1ccc2nc(SC(C)C(=O)N3CCCC3)[nH]c2c1 (stereo unspecified) > 76.9 µM
COC(=O)c1ccc(NC(=O)CS(=O)(=O)Cc2ccccc2)cc1 > 76.9 µM
CCOc1ccccc1NC(=O)CN(c1ccc(OC)cc1)S(=O)(=O)c1c(C)noc1C > 76.9 µM
COC(=O)c1ccc2nc(NC(=O)CN3C(=O)CCC3=O)sc2c1 > 76.9 µM
CCc1nnc(NC(=O)CSc2nnc(COc3ccc(C#N)cc3)n2-c2ccccc2)s1 > 76.9 µM
COCCn1nnnc1C(c1ccc(OC)c(OC)c1)N1CCc2ccccc21 (stereo unspecified) > 76.9 µM
CCNC(=O)c1cc2c(=O)n3cccc(C)c3nc2n1C > 76.9 µM
COc1ccc(C(C)C)cc1S(=O)(=O)NCc1ccccn1 > 76.9 µM
CC(C)(C)NC(=O)CN(C(=O)C1(C)CC(=O)N=C2C=CC=CN21)C1CCCC1 (stereo unspecified) > 76.9 µM
CC(C(=O)O)N1C(=O)c2cccc3cccc1c23 (stereo unspecified) > 76.9 µM
N#Cc1c2ncn(CC(=O)c3ccc(Br)cc3)c(=O)c2c2n1CCC2 > 76.9 µM
CCC(=O)N1CCc2cc(S(=O)(=O)NCCC(=O)N3CCN(Cc4ccccc4)CC3)ccc21 > 76.9 µM
COc1ccc(NC(=O)C2C3C=CC4(CN(Cc5cccnc5)C(=O)C24)O3)c(OC)c1 (stereo unspecified) > 76.9 µM
CC(C)CCN1CC(C(=O)N2CCN(c3ccc(F)cc3)CC2)CC1=O (stereo unspecified) > 76.9 µM
CCOc1ccccc1-c1nc(-c2cc3ccc(C)cc3[nH]c2=O)no1 > 76.9 µM
COc1ccc(-c2noc(CN3CCC(Cc4ccccc4)CC3)n2)cc1 > 76.9 µM
O=C(O)CCc1ccc(-c2ccc(Br)cc2)o1 > 76.9 µM
CCC(C)NC(=O)CC(NS(=O)(=O)c1ccc(Cl)cc1)c1ccco1 (stereo unspecified) > 76.9 µM
O=C(CSc1nnc(Cc2cccs2)n1-c1ccccc1)NC1CCCCC1 > 76.9 µM
C=CCN1C(=O)C2(C(C#N)=C(N)Oc3n[nH]c(CCC)c32)c2ccccc21 (stereo unspecified) > 76.9 µM
O=C(CSC1=NCCS1)N1CCOCC1 > 76.9 µM
CCN(CC)CCNC(=O)c1c(O)c2c([nH]c1=O)CCCC2 > 76.9 µM
Cc1noc(C)c1COC(=O)c1cc2c(C)nn(-c3ccc(F)cc3)c2s1 > 76.9 µM
O=C1c2ccccc2-c2nccnc21 > 76.9 µM
Cc1noc(C)c1COC(=O)COc1ccc2c(C)cc(=O)oc2c1 > 76.9 µM
COC(=O)Cc1ccc(NC(=O)c2ccc(Br)o2)cc1 > 76.9 µM

Reference: PubChem BioAssay AID360 (National Center for Advancing Translational Sciences (NCATS), 2006)
